Assay results: publication PMC4336329 (PLoS ONE, 2015)
Out of some 310,000 compounds screened, about 2,200 (0.71%) showed an effect of 50% or more. The effect is printed as a negative number. The list shows a part of the results.

molecular target: human ether-à-go-go-related gene (hERG) potassium channel (human, UniProt Q12809); assay: primary screen, population patch clamp on CHO cells stably expressing hERG
Sequence (Q12809 whole entry, looked up): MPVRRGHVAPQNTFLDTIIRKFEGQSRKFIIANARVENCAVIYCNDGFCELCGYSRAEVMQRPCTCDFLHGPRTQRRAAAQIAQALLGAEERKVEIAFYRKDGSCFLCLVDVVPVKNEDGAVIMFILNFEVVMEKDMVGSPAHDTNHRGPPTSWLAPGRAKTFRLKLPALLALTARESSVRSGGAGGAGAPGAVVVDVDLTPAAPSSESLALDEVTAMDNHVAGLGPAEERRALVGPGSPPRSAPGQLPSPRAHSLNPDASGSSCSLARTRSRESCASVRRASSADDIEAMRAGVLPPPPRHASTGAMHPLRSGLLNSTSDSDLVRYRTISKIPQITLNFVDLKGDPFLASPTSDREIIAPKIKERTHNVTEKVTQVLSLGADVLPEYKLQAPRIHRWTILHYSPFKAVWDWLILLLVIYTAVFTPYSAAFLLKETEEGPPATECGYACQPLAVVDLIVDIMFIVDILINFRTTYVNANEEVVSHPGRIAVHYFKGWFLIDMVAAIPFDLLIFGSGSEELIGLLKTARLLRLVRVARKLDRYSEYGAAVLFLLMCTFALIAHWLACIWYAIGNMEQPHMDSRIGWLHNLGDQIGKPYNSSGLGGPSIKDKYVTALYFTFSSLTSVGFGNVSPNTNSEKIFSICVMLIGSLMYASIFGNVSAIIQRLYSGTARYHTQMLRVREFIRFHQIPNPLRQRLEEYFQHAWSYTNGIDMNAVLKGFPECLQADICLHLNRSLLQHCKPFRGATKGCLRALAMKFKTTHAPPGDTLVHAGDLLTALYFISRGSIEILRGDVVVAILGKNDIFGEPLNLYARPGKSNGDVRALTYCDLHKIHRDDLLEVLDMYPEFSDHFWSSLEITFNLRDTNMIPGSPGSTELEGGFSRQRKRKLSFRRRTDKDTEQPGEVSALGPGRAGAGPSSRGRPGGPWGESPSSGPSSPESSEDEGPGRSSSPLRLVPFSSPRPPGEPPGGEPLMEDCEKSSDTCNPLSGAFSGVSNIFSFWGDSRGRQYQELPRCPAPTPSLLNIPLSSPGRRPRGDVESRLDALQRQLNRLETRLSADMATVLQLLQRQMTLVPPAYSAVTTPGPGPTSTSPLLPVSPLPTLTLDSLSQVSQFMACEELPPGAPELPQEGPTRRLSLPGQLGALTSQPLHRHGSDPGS

Row | SMILES | hERG current change (%, negative = inhibition) at 1uM [%]
1 | C/C(=N\NC(=O)C1CC1)c1ccc2c(c1)OCCO2 | 12
2 | Cn1c(=O)c(-c2cccc(Cl)c2)c(O)c2ccccc21 | 8.79
3 | CCOc1cc(/C=N\NC(=O)Cc2ccccc2)ccc1OCC(=O)Nc1ccc(C)c(C)c1 | 11.8
4 | FC(F)(F)c1nc(-c2cccs2)ncc1-c1nnnn1-c1ccc(Cl)cc1 | 2.14
5 | CCN(CC)c1c2c(c(C#N)c3nc4ccccc4n13)CCC2 | 9.16
6 | S=C(NCCc1ccccc1)Nc1ccc(N2CCCCC2)cc1 | 11.1
7 | Oc1ccc(N=Cc2ccc(O)c(O)c2)cc1 | 5.6
8 | CS(=O)(=O)N1CCN(c2ccc(NC(=O)COc3ccccc3[N+](=O)[O-])cc2)CC1 | 10.3
9 | O=C(CSC1=NS(=O)(=O)c2ccccc2N1)NCCc1ccccc1 | 4.74
10 | COc1ccc(NS(=O)(=O)c2ccc3oc(=S)[nH]c3c2)cc1 | 17.9
11 | CC(C)(C)C1(O)CC(C(F)(F)F)=NN1C(=O)CCCc1ccccc1 (centres unmarked) | 3.57
12 | COC(=O)CSC1=C(C#N)C(=O)NC(c2ccccc2)S1 (centres unmarked) | 12.1
13 | COc1ccc(/C(O)=C2/C(=O)C(=O)N(c3ncccn3)C2c2ccc(F)cc2)cc1 (centres unmarked) | 8.4
14 | COc1ccc(OC)c(-c2csc(NC(=O)CSc3ccc(Br)cc3)n2)c1 | 16.3
15 | COc1cc(NC(=O)c2ccccc2)c(OC)cc1NC(=O)CSc1[nH]c(=O)cc(C)c1C#N | 10.7
16 | CNc1ccc(Br)cc(C(=O)/C=C/c2cccc(OC)c2)c1=O | 8.33
17 | O=C(c1ccc(-n2cccc2)cc1)N1CCN(Cc2ccccc2)CC1 | -59.9
18 | Cc1ccc(SCC(=O)OCC(=O)NCC2CCCCC2)cc1C | 13.1
19 | CCCCOC(=O)CSc1nc(N)c(C#N)c(-c2ccc(OC)cc2)c1C#N | 9.25
20 | COc1ccc2c(c1)CCCC21NC(=O)N(CC(N)=O)C1=O (centres unmarked) | -0.975
21 | CCCCN1CC(=O)N2[C@H]3c4ccccc4OC[C@@H]3[C@H](c3ccccc3)[C@]2(C)C1=O | 9.26
22 | Clc1ccc(CSc2nnc3c(n2)[nH]c2ccccc23)cc1 | -12.4

Row | SMILES | hERG current change (%, negative = inhibition) at 1uM [%]
23 | O=C(O)c1ccc(Cn2nnc3sc4c(c3c2=O)CCCC4)cc1 | 18.1
24 | O=C(NC1=NCCCCC1)c1cccc2ccccc12 | 5.45
25 | CCCCN(C(=O)c1ccc([N+](=O)[O-])s1)c1c(N)n(CCCC)c(=O)[nH]c1=O | 11.3
26 | Cn1nnnc1SCC(=O)c1cccs1 | 9.41
27 | COc1ccc(CN2CCC(Cc3ccccc3)CC2)c(C)c1C | 9.37
28 | CCCc1c(C)nc(N2CCN(c3ccccc3F)CC2)[nH]c1=O | 12.3
29 | Cc1cccn2c(=O)c(C=O)c(Sc3ncccn3)nc12 | 15.9
30 | COc1ccccc1NC=C1C(=O)OC(C)(C)OC1=O | -19.6
31 | O=C1C2CCCN2C(=O)N1CCCCN1CCN(c2ccccc2)CC1 (centres unmarked) | 1.66
32 | Cc1ccc(S(=O)(=O)Nc2ccc3nc(-c4cccn4C)[nH]c3c2)cc1 | -3.65
33 | CCOC(=O)C1C(=O)OC(C)(C)C1C(C)C(=O)c1ccc(C)cc1C (centres unmarked) | -1.34
34 | COc1cc(C)c(S(=O)(=O)NCc2cccnc2)cc1C | 14
35 | CC(=O)c1cccc(NC(=O)COC(=O)c2n[nH]c3ccccc23)c1 | 5.33
36 | Nc1ccc(C(=O)OCCCc2nc3cc4ccccc4cc3[nH]2)cc1 | -4.16
37 | CCN(CC(=O)Nc1ccc(S(=O)(=O)N2CCCC2)cc1)CC(=O)Nc1cccc(OC)c1 | 28.2
38 | Cn1c(SCc2ccccc2Cl)nnc1-c1cnccn1 | 14.6
39 | COc1cccc(OC)c1C(=O)N1CCN(c2c(Cc3ccccc3)c(C)nc3ncnn23)CC1 | -1.17
40 | Cc1ccccc1CNC(=O)CCC(=O)N1CCOc2ccccc21 | 8.29
41 | CC1(NC(=O)CCc2nc3ccccc3c(=O)[nH]2)CCS(=O)(=O)C1 (centres unmarked) | 12.9
42 | COc1cc2cc(C#N)c(SCC(=O)Nc3cc(C)on3)nc2cc1OC | 8.57
43 | COc1ccc(S(=O)(=O)N2CCC3(CC2)OCCN3S(=O)(=O)c2cccs2)cc1 | -1.95
44 | O=C(c1cccc(-c2ccccc2F)c1)N1CC[C@@H](N2CCC(O)CC2)[C@H](O)C1 | -1.58
